Some of the results follow. Single values of this set are uncertain.
The compounds below were run on U2OS (assay: Cell Painting induction (percent of morphological features significantly changed vs DMSO); higher = stronger morphological change). Settings: 10 µM; 20 h; run: confirmation repeat.
Method: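 Cell Painting assay in U2OS cells: compounds at 10 µM for 20 h, six dyes, 579 robust CellProfiler features as Z-scores vs DMSO median (MAD). Induction is the % of significantly changed features (active if ≥5%); relative cell count is in % of DMSO. The primary run holds DCM compounds preselected for induction ≥10%; the confirmation repeat defines active compounds (370 of 549). Replicate agreement is low, attributed to precipitation.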
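Further: stains mark DNA, RNA and nucleoli, ER, actin, Golgi, plasma membrane and mitochondria, read by high-content imaging, with DMSO controls at matching solvent concentration.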

Cell Painting induction, inactive:
CN(C1CCCCC1)S(=O)(=O)c1ccc2c(c1)c(=O)c(C(=O)N1CCc3ccccc3C1)cn2C 0%
Cc1cccc(N2CCN(C(=O)c3ccc(CNc4c(N5CCC(C)CC5)c(=O)c4=O)cc3)CC2)c1C 0.2%
CC1=C(C(=O)OCC2CCCO2)C(c2coc3ccccc3c2=O)C2=C(O)CC(C)(C)CC2=N1 (configuration not stated) 0.2%
Cc1ccc(NC(=N)Nc2nc(O)cc(CSc3ccc(C)cc3)n2)cc1 0.9%
Cc1ccc2c(C)nc(Nc3nc(=O)cc(CSc4nc5ccccc5s4)[nH]3)nc2c1 2.1%
CCCCSCCCNC(=O)c1cn(C)c2ccc(S(=O)(=O)N3CCCC3)cc2c1=O 0%
O=C(C1CCCN(S(=O)(=O)c2ccc(Br)s2)C1)N1CCN(c2ccccc2)CC1 (configuration not stated) 4.5%
COc1ccccc1CNC(=O)c1ccc2c(=O)n3c(nc2c1)CCCCC3 2.4%
COc1ccc(-c2cn3c(C)c(C(=O)N4CCN(c5ccc(F)cc5)CC4)sc3n2)cc1 0%
CCOC(=O)Cn1c(CN(Cc2ccccc2)Cc2ccccc2)nc2c1c(=O)[nH]c(=O)n2C 1.6%
CCN(Cc1ccccc1)C(=O)Cn1c(=O)n(-c2ccc(OC)cc2OC)c(=O)c2c(C)c(C)sc21 4.5%
O=S(=O)(c1ccc2nc(N3CCN(c4ccccc4F)CC3)ccc2c1)N1CCCCC1 0.2%

Cell Painting induction, active:
Cc1sc2ncn(CC(=O)NCCCN3CC(C)CC(C)C3)c(=O)c2c1S(=O)(=O)N1CC(C)CC(C)C1 (configuration not stated) 66.7%
COc1ccc(S(=O)(=O)NC2CC(C)(C)NC(C)(C)C2)c2ccccc12 31.4%
CCOc1cc(CN2CCN(Cc3ccc(Cl)cc3)CC2)ccc1OC 26.4%
Cn1nc(C(=O)NCc2cccc(Cl)c2)c2c1-c1ccccc1S(=O)(=O)C2 9.2%
Cc1ccc(CCNC(=O)CN(c2cc(C)cc(C)c2)S(=O)(=O)c2c(C)noc2C)cc1 13.3%
COc1cccc(-c2cc(C(=O)Nc3cccnc3)c3ccccc3n2)c1 10.7%
CCOC(=O)c1ccc(NC(=O)C2CCN(S(=O)(=O)c3ccc4c(c3)CC(C)N4C(C)=O)CC2)cc1 (configuration not stated) 15%
CNC(=S)N1CCc2cc(OC)c(OC)cc2C1COc1ccc(F)cc1 (configuration not stated) 15.9%
CCc1nc(SCC(=O)Nc2ccc(F)cc2)c2c(=O)n(C)c(=O)n(C)c2n1 12.1%
Cc1ccc(-c2nn3c(C)nnc3s2)cc1NC(=O)c1ccc(OC(C)C)cc1 7.9%
Cc1ccc(N2CC(C(=O)N3CCC(C(=O)Nc4cccc(Br)c4)CC3)CC2=O)cc1 (configuration not stated) 13%
Cc1ccc(C)c(CN2CCC(CNC(=O)CCc3nnc4ccc(N5CCC(C)CC5)nn34)CC2)c1 37.3%
CCc1ccc(-c2cc(C)no2)cc1S(=O)(=O)Nc1cccc(CN2CCCC2)c1 30.2%
CC(C)N(CCNC(=O)c1ccc(CS(=O)(=O)c2c(Cl)cccc2Cl)o1)Cc1ccccc1 23.3%
COCCn1c(=O)[nH]c2cc(C(=O)N3CCN(c4ccc(Cl)cc4)CC3)ccc2c1=O 24%
Cc1ccc(CNC(=O)c2cnn3c(C(F)(F)F)cc(-c4ccccc4)nc23)cc1 17.3%
O=C(CCS(=O)(=O)c1cccs1)Nc1ccc(C(=O)NC2CCN(Cc3ccccc3)CC2)cc1 12.8%
Cc1ccc(Sc2cc(C(=O)NCCN(C)C)c3ccccc3n2)cc1 28.8%
CCOc1c(Br)cc(C2CC(=O)Nc3cc(OC)c(OC)cc32)cc1OC (configuration not stated) 8.1%
COc1ccc(N2CCN(C(=O)c3sc4ncn(CC(=O)N5CCCCC5C)c(=O)c4c3C)CC2)cc1 (configuration not stated) 28.5%
Cc1cc(-c2ccc(C)c(S(=O)(=O)NCCCN(Cc3ccccc3)C(C)C)c2)on1 50.3%
COc1ccc(CN2CCN(C(=O)c3ccc(CNS(=O)(=O)c4ccc(C)cc4)cc3)CC2)c(OC)c1OC 40.9%
O=C(c1ccc2c(c1)N(Cc1cccc(Cl)c1)C(=O)c1ccccc1S2=O)N1Cc2ccccc2C1 (configuration not stated) 15.7%
CN(C)S(=O)(=O)c1ccc2c(c1)C(=NNC(N)=O)c1cc(S(=O)(=O)N(C)C)ccc1-2 23.5%
CC(=O)Nc1ccc(NC(=O)C2CCC(CNS(=O)(=O)c3cccc4nsnc34)CC2)cc1 (configuration not stated) 11.4%
